The campaign covered roughly 360,000 compounds. About 6,000 (1.7%) were called active. The inconclusive results got no clear call from the source; some entries with a clear call stand among them for comparison. Calls follow the shape of the dose curve; as a rule, active = well fitted cell-killing curve with a large enough effect; inconclusive = small, poorly fitted or top-dose-only effect, or effect the other way; inactive = flat fitted curve, though single readings scatter. Potencies of inconclusive entries are left out as doubtful fits.
assay: qHTS for induction of synthetic lethality in tumor cells producing 2HG: qHTS for the HT-1080-NT fibrosarcoma cell line; details: HT-1080-NT fibrosarcoma viability, CellTiter-Glo ATP luminescence, 48 h; activity, negative = less viability: at 46.1 µM (top of the series) unless noted;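 also: NT is the 2HG producing partner of a matched IDH1 knockdown line; nearly all actives have a fitted effect of over 55% in size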;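 as to activity, negative = less viability: 0% = DMSO-treated cells and -100% = media-only wells without cells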
Procedure, shortened: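 750 cells/well, RPMI + 5% FBS; 2 h settle, compound pin-transfer, 48 h at 37 degrees C. CellTiter-Glo 10 min RT, luminescence. Normalized to DMSO and media-only wells.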
Potency is read from the fitted curve at half-maximal effect; tags tell the direction and shape of the fitted curve.

Structure (SMILES)	Potency	activity, negative = less viability
O=C(CCCOc1ccc(Cl)cc1Cl)Nc1ccncc1	inconclusive [cytotoxic, single point]	–
CCNC(=O)c1cc2c(c(-c3cccc(-c4ccccc4F)c3)n1)[C@H](CCO)N(C(=O)CC)C2	inconclusive [cytotoxic, partial curve]	–
COc1ccc(Nc2nc(OC)nc(N3CCOCC3)n2)cc1	inactive	–
COc1cc(Nc2nc3ccccc3n3nnnc23)cc(OC)c1OC	inactive	–
Cc1nnc(SCC(=O)NNC(=O)COc2ccc(Cl)cc2)n1C	inactive	–
CCN1CCN(S(=O)(=O)c2ccc(Cl)c(C(=O)N(CCc3ccccc3)Cc3ccccc3)c2)CC1	inconclusive [cytotoxic, partial curve]	–
CC(=O)Nc1cccc(C(=O)OC(C)C(=O)NCc2ccc3c(c2)OCO3)c1 (stereo unspecified)	inactive	–
CS(=O)(=O)N(CC(=O)Nc1ccccc1C(=O)NCc1ccco1)c1ccc2c(c1)OCCO2	–	inactive: 8.84% [at 9.24 µM]
O=C(CC(O)c1ccncc1)c1ccccc1O (stereo unspecified)	inconclusive [cytotoxic, single point]	–
Cc1cccc2sc(NC(=O)C3CC3)nc12	inactive	–
CCCCCCCCN1C(=O)[C@H](CC(=O)NCc2cccc(C(F)(F)F)c2)C[C@@]2(C(=O)OC)CCCCC=C12	inconclusive [cytotoxic, single point]	–
O=C(/C=C/c1cccc(O)c1)c1cccnc1	inconclusive [cytotoxic, single point]	–
Cc1ccc(C(=O)c2cn[nH]c2-c2cc(Cl)ccc2O)cc1	inconclusive [cytotoxic, single point]	–
CCCCN(C=O)c1c(CC)nc2c(OCC3CCCCC3)cccn12	inconclusive [cytotoxic, single point]	–
COC(=O)c1ccccc1NC(=O)c1ccc(F)cc1	–	inconclusive: 22.7%
COc1ccc(-c2cc(NC=O)c3ncc(-c4ccc(C(C)=O)cc4)n3c2)cc1OC	active: 16.4 µM	–
CCCCCc1ccc(OCCCC[n+]2ccccc2)c(CCCCC)c1	active: 23.1 µM	–
COc1ccc(-c2nn(-c3ccccc3)cc2C(=O)N/N=C/c2ccc([N+](=O)[O-])o2)cc1	inconclusive [cytotoxic, single point]	–
COc1ccc(N(CC(=O)NCC2CCCO2)S(=O)(=O)c2ccc(C)cc2)cc1OC (stereo unspecified)	inactive	–
CN1CCN(NC(=O)c2cc(-c3cccc(Cl)c3)nc3ccccc23)CC1	active: 16.4 µM	–
Cc1ccc2cc(CCNC(=O)Cc3cccs3)c(=O)[nH]c2c1	inactive	–
Cc1sc2nc(CSc3ccccc3)nc(N3CCN(C)CC3)c2c1C	inconclusive [cytotoxic, single point]	–
CCOC(=O)c1[nH]c(C)c(C(=O)Nc2ccc(C)cc2C)c1C	inconclusive [cytotoxic, partial curve]	–
O=c1c(-c2cc3ccccc3[nH]2)nc2ccccc2n1C(CCc1ccccc1)c1nc2ccccc2[nH]1 (stereo unspecified)	inconclusive [cytotoxic, single point]	–
CC(C)CC1C2C(=O)N(c3ccccc3)C(=O)C2ON1c1ccccc1 (stereo unspecified)	inactive	–
Cc1cccc(NC(=O)C(C)OC(=O)CNC(=O)C2CCCCC2)c1 (stereo unspecified)	inactive	–

Structure (SMILES)	Potency	activity, negative = less viability
CN(CC(=O)Nc1ccccc1)CC(=O)Nc1ccc(F)cc1	inactive	–
Cc1cc2c(cc1C)CSC(c1ccccc1OC(=O)C(C)C)SC2	inactive	–
COc1ccc(C2CC(c3ccccc3)=NN2C(=O)COC(=O)c2cccc(O)c2)cc1 (stereo unspecified)	inconclusive [cytotoxic, partial curve]	–
COC(=O)/C=C/c1ccc2c(c1)S(=O)(=O)N(Cc1ccc(OC)cc1)[C@H]2CC(=O)OC	inactive	–
CC(C)CNC(=O)C1(C)CCCCCN1C(=O)c1cccnc1 (stereo unspecified)	inconclusive [rising, single point]	–
COc1cccc(CN2CCC2(C)C(=O)Nc2ccc(C)c(O)c2)c1F (stereo unspecified)	inconclusive [cytotoxic, partial curve]	–
COc1ccc2nc(NCCCO)[nH]c2c1	inactive	–
COc1ccc(F)cc1C(=O)C1CCCN(Cc2c(C)n(C)n(-c3ccccc3)c2=O)C1 (stereo unspecified)	inactive	–
CCCN1CNc2c(c(=O)[nH]c(=S)n2CCc2cc(Cl)cc(Cl)c2)C1	inconclusive [cytotoxic, single point]	–
CCOc1ccccc1NC(=O)Cn1nnc(C(=O)NCc2ccco2)c1N	inconclusive [cytotoxic, full curve]	–
O=C(CN1CCCCC1)N1CCCc2c1c(=O)oc1ccc(OCc3ccccc3)cc21	inactive	–
CCN1CCN(C(=S)Nc2ccsc2C(=O)OC)CC1	inconclusive [rising, single point]	–
NS(=O)(=O)c1ccc(CCNC(=O)CNCCc2ccc(C(F)(F)F)cc2)cc1	inactive	–
CCn1cc(CN2CCC(n3nccc3NC(=O)CCc3ccccc3)CC2)cn1	inactive	–
CC(C)(C)SCCNC(=O)/C=C/c1cccc([N+](=O)[O-])c1	inactive	–
COc1ccc(Cn2cccc(NC(=O)Nc3ccc(C#N)cc3)c2=O)cc1	inconclusive [cytotoxic, single point]	–
CCCc1cc(=O)oc2cc(OCC(=O)NCCc3ccc(S(N)(=O)=O)cc3)ccc12	inactive	–
Cc1ccc(SC(=O)COc2ccccc2C)cc1	inactive	–
O=C(Cn1ncc2c3ccccc3n(Cc3ccc(F)cc3)c2c1=O)N1CCN(c2ncccn2)CC1	inactive	–
CCc1ccc(N2CC(O)=C(c3nc4ccccc4c(=O)[nH]3)C2=N)cc1	inconclusive [rising, single point]	–
Brc1ccc(CSc2nnc(-c3ccccn3)n2Cc2ccco2)cc1	inconclusive [cytotoxic, single point]	–
CC(C)(C)NC(=O)N1CCN(c2ncccc2C(F)(F)F)CC1	inactive	–
Cc1c(Cl)cccc1NC(=O)Cn1cccc1	inactive	–
CS(=O)(=O)N1CCC(C(=O)N2CCN(c3cccc(Cl)c3)CC2)CC1	inconclusive [rising, single point]	–
O=C(NCc1ccccc1)c1cccc(COc2cccc(Cl)c2)c1	inconclusive [cytotoxic, single point]	–
O=C(Nc1ccc2ccccc2c1)C(C1CC1)n1c(=O)c(-c2cc3ccccc3[nH]2)nc2ccccc21 (stereo unspecified)	inconclusive [cytotoxic, partial curve]	–

Structure (SMILES)	Potency	activity, negative = less viability
CCOCCCN1CC(C(=O)NCCc2ccccc2)CC1=O (stereo unspecified)	inconclusive [rising, single point]	–
CCOc1ccccc1/C=C/c1onc(C)c1S(=O)(=O)N1CCC(C(=O)NC)CC1	inactive	–
Cc1ccc(C(=O)NC2CCCc3ccccc32)cc1[N+](=O)[O-] (stereo unspecified)	inconclusive [cytotoxic, partial curve]	–
Cc1ccccc1NC(=O)C(=O)N/N=C/c1cccc(Br)c1	inactive	–
CC(N)c1csc(Nc2ccc(C(=O)c3ccccc3)cc2)n1 (stereo unspecified)	inconclusive [cytotoxic, partial curve]	–
CC1CCc2c(sc3ncn(N)c(=N)c23)C1 (stereo unspecified)	inconclusive [cytotoxic, single point]	–
COc1cc(/C=C/C(=O)OCC(=O)NC(=O)NC(C)C)cc(S(=O)(=O)N2CCc3ccccc32)c1OC	inconclusive [cytotoxic, single point]	–
CC(Sc1ccc(S(=O)(=O)N2CCN(C)CC2)cn1)C(=O)NC1CCCCC1 (stereo unspecified)	inactive	–
C/C(NCCc1ccc(O)cc1)=C1/CCOC1=O	inactive	–
CCC(C)Oc1ccc(C(=O)Nc2ccc(CN3CCOCC3)cc2)cc1 (stereo unspecified)	inconclusive [cytotoxic, single point]	–
CCOc1cc(C(=O)Nc2cccc(OCC(=O)N3CCOCC3)c2)cc(OCC)c1OCC	inactive	–
CCCn1c(N)c(C(=O)COC(=O)CCNS(=O)(=O)c2ccccc2F)c(=O)[nH]c1=O	inactive	–
COc1cc(C(=O)COC(=O)c2ccc3c(c2)OCCO3)cc(OC)c1OC	inconclusive [cytotoxic, single point]	–
CCNC(=S)NNC(=O)CSc1nc2ccccc2n1C	–	inconclusive: -37.8% [cytotoxic]
Cc1ccc(SC(c2ccc(C)cc2)C(Cn2cncn2)C(=O)c2ccccc2)cc1 (stereo unspecified)	inconclusive [cytotoxic, single point]	–
CC1(C)S[C@@H]2[C@H](NC(=O)C(C(=O)O)c3ccccc3)C(=O)N2[C@H]1C(=O)O (stereo partly specified)	inconclusive [rising, single point]	–
COc1ccc(-c2ccccc2)cc1NCc1ccc(OC)c(OC)c1	inactive	–
CC(OC(=O)c1cc2sccc2n1C)C(=O)NCC1CCCO1 (stereo unspecified)	–	inconclusive: -12% [cytotoxic]
Cc1ccc(N(C)S(=O)(=O)c2ccc3c(c2)NC(=O)C(C)S3)cc1 (stereo unspecified)	inconclusive [cytotoxic, single point]	–
Cn1c(=O)c2cc(NC(=S)NCc3ccccc3F)ccc2n1C	inconclusive [rising, partial curve]	–
COc1cccc(NC(=O)COc2ccccc2C(=O)Nc2ccccc2)c1	inactive	–
CCNC(=O)N(C)C[C@H]1N[C@@](C)(C(=O)OC)[C@H]2C(=O)N(Cc3ccccc3)C(=O)[C@@H]12	inactive	–
CC(C)(C)c1cc(NC(=O)C2(C)CCN2C(=O)C2(c3ccccc3)CC2)no1 (stereo unspecified)	inactive	–
O=c1[nH][nH]cc1C=Nc1ccc(Cl)cc1	inconclusive [cytotoxic, partial curve, poor fit]	–

Reference: PubChem BioAssay AID686970 (National Center for Advancing Translational Sciences (NCATS), 2013)
